According to a collection of fitness landscapes (doi:10.1038/s41467-024-54723-y):
Whole data set: some 18,000 sequences, median “TetR repression strength (sort-seq, GFP reporter)” near 0.23, cut for the highest 2% near 0.68. The list shows a part of the results.

biological target: TetR (class B, Tn10) (UniProt P04483); test: TetR repression strength (sort-seq, GFP reporter) (relative to tetO2 = 1); higher = stronger repression; conditions: E. coli
Summary of the method: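 Repression strength is the top bin index plus one minus the read-weighted mean bin, relative to the unaltered operator's value. A low-copy library in E. coli SIG10-MAX randomized eight operator positions between a constitutive promoter and sfGFP, with TetR expressed constitutively; cells grew 5 h at 37 °C in LB with 50 µg/mL chloramphenicol and 10^6 were FACS-sorted into 13 bins that were each Illumina-sequenced. Three independent transformations were averaged, keeping only members with ≥30 reads in all replicates and CV ≤0.5.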

UniProt P04483, sequence (P04483 whole entry): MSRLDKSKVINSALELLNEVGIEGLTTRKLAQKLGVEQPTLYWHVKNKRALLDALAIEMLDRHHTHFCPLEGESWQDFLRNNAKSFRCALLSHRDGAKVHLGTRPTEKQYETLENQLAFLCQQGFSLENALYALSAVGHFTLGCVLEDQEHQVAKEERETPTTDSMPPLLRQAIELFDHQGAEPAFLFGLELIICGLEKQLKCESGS

| Sequence | TetR repression strength |
| --- | --- |
| TCCCTATAAGTTTATGAGA | 0.294 |
| TCCCGACTAGTGAGAGAGA | 0.502 |
| TCCCTCCCAGTTAGTGAGA | 0.266 |
| TCCCCACGAGTTCAGGAGA | 0.271 |
| TCCCGCATAGTGAGTGAGA | 0.148 |
| TCCCTATTAGTGGGTGAGA | 0.364 |
| TCCCGATGAGTGTATGAGA | 0.28 |
| TCCCAAGTAGTCGGCGAGA | 0.346 |
| TCCCTCTAAGTAGCGGAGA | 0.0363 |
| TCCCATTCAGTTGTGGAGA | 0.217 |
| TCCCAAATAGTCGTAGAGA | 0.563 |
| TCCCCGCTAGTGAAGGAGA | 0.591 |
| TCCCGATCAGTATAGGAGA | 0.173 |
| TCCCTAGGAGTGTGAGAGA | 0.146 |
| TCCCCTGAAGTCGGAGAGA | 0.237 |
| TCCCATTAAGTGCATGAGA | 0.106 |
| TCCCAAAGAGTTATCGAGA | 0.15 |
| TCCCGTTGAGTCGATGAGA | 0.335 |
| TCCCTATTAGTACGGGAGA | 0.226 |
| TCCCAATAAGTGACAGAGA | 0.451 |
| TCCCAGATAGTATGAGAGA | 0.291 |
| TCCCGGATAGTTTTGGAGA | 0.21 |
| TCCCAGGAAGTTAGGGAGA | 0.245 |
| TCCCCGTGAGTATTCGAGA | 0.179 |
| TCCCGAGCAGTCCATGAGA | 0.277 |
| TCCCGTCAAGTAGTGGAGA | 0.12 |

| Sequence | TetR repression strength |
| --- | --- |
| TCCCTATGAGTCCGGGAGA | 0.0385 |
| TCCCCGGCAGTCGGCGAGA | 0.173 |
| TCCCGAAAAGTCTTAGAGA | 0.312 |
| TCCCTGTTAGTTGTAGAGA | 0.271 |
| TCCCTGATAGTGGCAGAGA | 0.261 |
| TCCCGGCAAGTGAGGGAGA | 0.17 |
| TCCCAAAAAGTTGTAGAGA | 0.458 |
| TCCCCCCGAGTTGCCGAGA | 0.311 |
| TCCCTATCAGTAAGGGAGA | 0.379 |
| TCCCCGCGAGTAGGGGAGA | 0.245 |
| TCCCTTCTAGTGTGCGAGA | 0.355 |
| TCCCATGGAGTAATTGAGA | 0.155 |
| TCCCGCTTAGTTTCGGAGA | 0.238 |
| TCCCTAAAAGTATGAGAGA | 0.18 |
| TCCCGCAAAGTGGGGGAGA | 0.065 |
| TCCCGTGCAGTGATAGAGA | 0.647 |
| TCCCGCGTAGTTGTGGAGA | 0.128 |
| TCCCGATTAGTGTAAGAGA | 0.295 |
| TCCCGTGTAGTTGGAGAGA | 0.191 |
| TCCCGTAAAGTAGGGGAGA | 0.219 |
| TCCCATGTAGTCAAGGAGA | 0.325 |
| TCCCGCGGAGTTGAAGAGA | 0.287 |
| TCCCGGTCAGTATATGAGA | 0.275 |
| TCCCGCCAAGTCCCGGAGA | 1.1 |
| TCCCGTAGAGTCAGGGAGA | 0.142 |
| TCCCTTGAAGTGCTAGAGA | 0.276 |

| Sequence | TetR repression strength |
| --- | --- |
| TCCCAGTGAGTACAGGAGA | 0.186 |
| TCCCGTTAAGTGGTCGAGA | 0.269 |
| TCCCGAGAAGTTCGGGAGA | 0.256 |
| TCCCAATGAGTTGGGGAGA | 0.229 |
| TCCCCGTCAGTGTGAGAGA | 0.212 |
| TCCCGGTAAGTGTATGAGA | 0.124 |
| TCCCGATCAGTACGTGAGA | 0.333 |
| TCCCAATAAGTTCCTGAGA | 0.155 |
| TCCCGGCTAGTCTTCGAGA | 0.303 |
| TCCCCACCAGTACTAGAGA | 0.346 |
| TCCCATTTAGTGATAGAGA | 0.555 |
| TCCCTGGTAGTGGCCGAGA | 0.246 |
| TCCCCGCTAGTCCATGAGA | 0.202 |
| TCCCCAGGAGTATGGGAGA | 0.0668 |
| TCCCTAGCAGTCACGGAGA | 0.243 |
| TCCCGGAAAGTAGAAGAGA | 0.122 |
| TCCCCAGGAGTACACGAGA | 0.21 |
| TCCCCCTGAGTGATGGAGA | 0.222 |
| TCCCATTAAGTGATAGAGA | 0.513 |
| TCCCGGCGAGTTACTGAGA | 0.179 |
| TCCCAAGTAGTTCAGGAGA | 0.205 |
| TCCCAATAAGTTCAAGAGA | 0.362 |
| TCCCATCTAGTACTTGAGA | 0.302 |
| TCCCGGAAAGTCTTGGAGA | 0.0589 |
| TCCCAGAAAGTGAAAGAGA | 0.207 |
| TCCCGTCTAGTGCAAGAGA | 0.332 |

| Sequence | TetR repression strength |
| --- | --- |
| TCCCCCTGAGTTGTCGAGA | 0.345 |
| TCCCTTAGAGTTCGTGAGA | 0.286 |
| TCCCCACGAGTGGGGGAGA | 0.222 |
| TCCCTGACAGTGCGGGAGA | 0.127 |
| TCCCTAAGAGTGAGCGAGA | 0.294 |
| TCCCTAACAGTTACTGAGA | 0.297 |
| TCCCGGTCAGTCCGGGAGA | 0.429 |
| TCCCTATGAGTTACAGAGA | 0.164 |
| TCCCATGTAGTCCATGAGA | 0.41 |
| TCCCGGCCAGTGTTTGAGA | 0.272 |
| TCCCGCGGAGTCGGAGAGA | 0.0978 |
| TCCCACATAGTTCTTGAGA | 0.259 |
| TCCCGAATAGTAGCTGAGA | 0.376 |
| TCCCAGGCAGTCGTAGAGA | 0.0886 |
| TCCCCGCAAGTATCGGAGA | 0.157 |
| TCCCGAGTAGTGTGGGAGA | 0.105 |
| TCCCTGGTAGTAGGTGAGA | 0.0497 |
| TCCCGATTAGTGACGGAGA | 0.0748 |
| TCCCGGGCAGTGGCGGAGA | 0.318 |
| TCCCAGGAAGTCGGGGAGA | 0.314 |
| TCCCCTTCAGTGTGTGAGA | 0.111 |
| TCCCACATAGTGTGCGAGA | 0.207 |
| TCCCACTGAGTGAGGGAGA | 0.251 |
| TCCCATTGAGTGATAGAGA | 0.536 |
| TCCCAGTAAGTCTTAGAGA | 0.174 |
| TCCCAACTAGTCGTAGAGA | 0.368 |

| Sequence | TetR repression strength |
| --- | --- |
| TCCCCTCGAGTGGAGGAGA | 0.146 |
| TCCCGTGCAGTCAACGAGA | 0.326 |
| TCCCTAGGAGTCCATGAGA | 0.124 |
| TCCCAGCCAGTCACGGAGA | 0.204 |
| TCCCTAAGAGTTACCGAGA | 0.355 |
| TCCCAGATAGTGGTGGAGA | 0.217 |
| TCCCAGCGAGTCATGGAGA | 0.228 |
| TCCCATCGAGTAGGTGAGA | 0.14 |
| TCCCCTGGAGTTCTTGAGA | 0.306 |
| TCCCAATGAGTGAGTGAGA | 0.346 |
| TCCCAACAAGTTAAGGAGA | 0.118 |
| TCCCGTACAGTGATCGAGA | 0.283 |
| TCCCGACTAGTTCATGAGA | 0.529 |
| TCCCGGGGAGTTATGGAGA | 0.26 |
| TCCCCTTTAGTTCAGGAGA | 0.113 |
| TCCCGGCCAGTGCTGGAGA | 0.176 |
| TCCCGACTAGTGATTGAGA | 0.622 |
| TCCCGATCAGTCTGTGAGA | 0.205 |
| TCCCTGGGAGTAAGGGAGA | 0.28 |
| TCCCGAGTAGTCGGAGAGA | 0.115 |
| TCCCACCGAGTTGTGGAGA | 0.15 |
| TCCCAACAAGTGTAGGAGA | 0.197 |
| TCCCTGGTAGTGGTAGAGA | 0.203 |
| TCCCGTTTAGTGCAAGAGA | 0.27 |
| TCCCTGGTAGTATGGGAGA | 0.359 |
| TCCCATGAAGTGTTGGAGA | 0.587 |
